In patent publication US20250320309A1 (SHENGHE CHINA BIOPHARMACEUTICAL, published 2025):

T1: human CD24 (human, UniProt P25063 27-59)
T1 chain (looked up): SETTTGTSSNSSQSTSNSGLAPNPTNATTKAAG

B1: 2-C2-IgG1 (bispecific antibody)
heavy: EVQLQESGPGLVKPSQTLSLTCTVSGYSITSGYTWHWIRQFPGNKLEWIGHIQYTGNTKYNPSLESRITISRDTSKNQFSLKLSSVTAADTATYYCARGSTNSNDYWGQGTLVTVSS[here human IgG1 constant region without letters]GGGGSGGGGSGGGGSQVQLQESGPGLVKPSETLSLTCTVSGSSLTSYGVHWVRQPPGKCLEGLGVIWPGGSTNYNSALMSRVTISKDNSKSQVSLKMSSLTAADTAVYYCARVTGTWYFDVWGQGTTVTVSSGGGGSGGGGSGGGGSDIQMTQSPSSLSASLGDRVTISCSASQGISNYLNWYQQKPDGTVKLLIYYTSTLHSGVPSRFSGSGSGTDYTLTISSLQPEDIATYYCQQYSKLPWTFGCGTKLEIK
light: DIVMTQSPSSLAVSLGERATINCKSSQSLLYSNDQKNYLAWYQQKPGQSPKLLIYWASTRESGVPDRFSGSGSGTDFTLTISSLQAEDVAVYYCQQYFIYPLTFGGGTKLELKRTVAAPSVFIFPPSDEQLKSGTASVVCLLNNFYPREAKVQWKVDNALQSGNSQESVTEQDSKDSTYSLSSTLTLSKADYEKHKVYACEVTHQGLSSPVTKSFNRGEC
B2: 2-D2-IgG1 (bispecific antibody)
heavy: [here human IgG1 constant region without letters]
light: DIVMTQSPSSLAVSLGERATINCKSSQSLLYSNDQKNYLAWYQQKPGQSPKLLIYWASTRESGVPDRFSGSGSGTDFTLTISSLQAEDVAVYYCQQYFIYPLTFGGGTKLELKRTVAAPSVFIFPPSDEQLKSGTASVVCLLNNFYPREAKVQWKVDNALQSGNSQESVTEQDSKDSTYSLSSTLTLSKADYEKHKVYACEVTHQGLSSPVTKSFNRGECGGGGSGGGGSQVQLQESGPGLVKPSETLSLTCTVSGSSLTSYGVHWVRQPPGKCLEGLGVIWPGGSTNYNSALMSRVTISKDNSKSQVSLKMSSLTAADTAVYYCARVTGTWYFDVWGQGTTVTVSSGGGGSGGGGSGGGGSDIQMTQSPSSLSASLGDRVTISCSASQGISNYLNWYQQKPDGTVKLLIYYTSTLHSGVPSRFSGSGSGTDYTLTISSLQPEDIATYYCQQYSKLPWTFGCGTKLEIK

Target: T1, human CD24
Assay: cell-based or functional assay

| Binder | ADCC: cleavage death of MCF-7 cells by NK cells (LDH release), EC50 [nM] |
| --- | --- |
| B1 | 0.152 |
| B2 | 0.414 |
